Assay [1] concerns the target T1, EphA3 expressed in HEK293T cells (UniProt P29320).
T1 sequence: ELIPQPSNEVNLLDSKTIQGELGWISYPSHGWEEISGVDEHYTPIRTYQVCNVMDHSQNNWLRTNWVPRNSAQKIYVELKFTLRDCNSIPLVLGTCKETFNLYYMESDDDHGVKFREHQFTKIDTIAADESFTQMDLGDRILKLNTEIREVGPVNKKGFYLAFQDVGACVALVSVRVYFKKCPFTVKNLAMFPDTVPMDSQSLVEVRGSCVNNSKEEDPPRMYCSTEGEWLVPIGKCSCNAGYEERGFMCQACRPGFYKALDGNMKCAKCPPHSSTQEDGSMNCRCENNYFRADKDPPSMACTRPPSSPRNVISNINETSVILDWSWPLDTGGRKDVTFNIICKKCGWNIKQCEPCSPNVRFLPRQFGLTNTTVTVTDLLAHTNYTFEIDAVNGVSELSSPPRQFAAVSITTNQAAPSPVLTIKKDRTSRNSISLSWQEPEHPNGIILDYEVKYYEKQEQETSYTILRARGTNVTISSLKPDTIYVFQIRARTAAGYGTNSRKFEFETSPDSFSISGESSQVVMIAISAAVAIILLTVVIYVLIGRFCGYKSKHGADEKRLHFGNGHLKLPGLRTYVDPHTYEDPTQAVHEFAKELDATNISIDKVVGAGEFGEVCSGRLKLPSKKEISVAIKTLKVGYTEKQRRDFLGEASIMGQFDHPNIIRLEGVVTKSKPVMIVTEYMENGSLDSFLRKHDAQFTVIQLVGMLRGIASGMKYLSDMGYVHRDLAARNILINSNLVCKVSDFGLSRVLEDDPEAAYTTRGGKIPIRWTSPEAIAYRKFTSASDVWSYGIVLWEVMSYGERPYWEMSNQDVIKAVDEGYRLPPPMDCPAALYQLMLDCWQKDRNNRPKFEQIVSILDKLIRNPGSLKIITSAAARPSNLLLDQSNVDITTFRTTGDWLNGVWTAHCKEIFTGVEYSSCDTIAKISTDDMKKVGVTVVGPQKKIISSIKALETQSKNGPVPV
Description: co-IP; lysates (1 mg, RIPA buffer) of HEK293T cells transfected with NCAM140, NCAM mutants or EphA3, incubated with recombinant neurocan; precipitated with antibodies against NCAM (H-300) or EphA3 (C-19) and Protein A/G agarose; immunoblot for neurocan, densitometry; only the binder purified.

Sequences of proteins named here, by UniProt entry; tags and fusion partners are left off. A change or cut given only in a name is not applied to a line headed by its entry. A line that says so, or that is headed by a name, gives the form on record, which may keep a tag or linker. Residues count along the entry.
human NCAM Ig1-5/FN1-2 Fc fusion protein (full-length NCAM-EC) (P13591, residues 20-718): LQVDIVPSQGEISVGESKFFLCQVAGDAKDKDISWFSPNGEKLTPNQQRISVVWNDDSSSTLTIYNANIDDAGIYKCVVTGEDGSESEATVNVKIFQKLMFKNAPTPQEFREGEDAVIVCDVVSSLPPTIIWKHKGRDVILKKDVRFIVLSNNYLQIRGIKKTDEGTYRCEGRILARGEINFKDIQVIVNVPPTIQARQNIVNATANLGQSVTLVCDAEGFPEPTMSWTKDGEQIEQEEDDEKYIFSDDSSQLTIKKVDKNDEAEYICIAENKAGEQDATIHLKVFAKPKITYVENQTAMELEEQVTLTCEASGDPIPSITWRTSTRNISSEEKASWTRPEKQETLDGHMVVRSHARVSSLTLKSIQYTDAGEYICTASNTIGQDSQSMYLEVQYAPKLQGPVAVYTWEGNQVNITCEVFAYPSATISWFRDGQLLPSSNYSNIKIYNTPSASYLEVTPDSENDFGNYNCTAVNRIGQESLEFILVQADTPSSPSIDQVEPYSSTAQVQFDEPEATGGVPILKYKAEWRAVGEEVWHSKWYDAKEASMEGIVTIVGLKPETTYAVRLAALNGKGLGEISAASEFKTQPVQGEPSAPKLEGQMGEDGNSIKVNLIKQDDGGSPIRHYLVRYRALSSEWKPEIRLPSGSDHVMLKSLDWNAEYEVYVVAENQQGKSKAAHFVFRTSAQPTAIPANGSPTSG
wild type NCAM-140 expressed in HEK293T cells (P13591, form named): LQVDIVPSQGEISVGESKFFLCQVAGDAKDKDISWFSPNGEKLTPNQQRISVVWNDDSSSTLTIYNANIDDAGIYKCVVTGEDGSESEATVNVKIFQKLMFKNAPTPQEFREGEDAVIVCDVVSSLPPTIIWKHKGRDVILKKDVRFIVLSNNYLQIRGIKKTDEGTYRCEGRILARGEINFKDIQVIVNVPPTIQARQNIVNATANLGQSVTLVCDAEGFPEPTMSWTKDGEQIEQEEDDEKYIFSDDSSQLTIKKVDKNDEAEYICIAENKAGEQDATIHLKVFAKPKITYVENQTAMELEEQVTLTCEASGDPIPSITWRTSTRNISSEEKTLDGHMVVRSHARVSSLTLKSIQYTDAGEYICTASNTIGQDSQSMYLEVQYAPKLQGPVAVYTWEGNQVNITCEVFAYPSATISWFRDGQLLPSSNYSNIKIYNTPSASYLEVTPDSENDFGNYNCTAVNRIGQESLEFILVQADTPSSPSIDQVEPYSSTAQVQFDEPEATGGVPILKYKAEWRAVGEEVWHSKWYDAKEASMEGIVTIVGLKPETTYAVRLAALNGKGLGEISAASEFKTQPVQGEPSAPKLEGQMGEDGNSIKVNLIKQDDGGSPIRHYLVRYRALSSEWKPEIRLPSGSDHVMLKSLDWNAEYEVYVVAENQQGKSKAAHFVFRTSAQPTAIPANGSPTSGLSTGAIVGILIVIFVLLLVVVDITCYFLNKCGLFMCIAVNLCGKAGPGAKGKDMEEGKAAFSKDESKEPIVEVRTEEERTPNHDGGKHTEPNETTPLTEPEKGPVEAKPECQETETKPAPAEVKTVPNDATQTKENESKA
UniProt P13595, residues 20-1115: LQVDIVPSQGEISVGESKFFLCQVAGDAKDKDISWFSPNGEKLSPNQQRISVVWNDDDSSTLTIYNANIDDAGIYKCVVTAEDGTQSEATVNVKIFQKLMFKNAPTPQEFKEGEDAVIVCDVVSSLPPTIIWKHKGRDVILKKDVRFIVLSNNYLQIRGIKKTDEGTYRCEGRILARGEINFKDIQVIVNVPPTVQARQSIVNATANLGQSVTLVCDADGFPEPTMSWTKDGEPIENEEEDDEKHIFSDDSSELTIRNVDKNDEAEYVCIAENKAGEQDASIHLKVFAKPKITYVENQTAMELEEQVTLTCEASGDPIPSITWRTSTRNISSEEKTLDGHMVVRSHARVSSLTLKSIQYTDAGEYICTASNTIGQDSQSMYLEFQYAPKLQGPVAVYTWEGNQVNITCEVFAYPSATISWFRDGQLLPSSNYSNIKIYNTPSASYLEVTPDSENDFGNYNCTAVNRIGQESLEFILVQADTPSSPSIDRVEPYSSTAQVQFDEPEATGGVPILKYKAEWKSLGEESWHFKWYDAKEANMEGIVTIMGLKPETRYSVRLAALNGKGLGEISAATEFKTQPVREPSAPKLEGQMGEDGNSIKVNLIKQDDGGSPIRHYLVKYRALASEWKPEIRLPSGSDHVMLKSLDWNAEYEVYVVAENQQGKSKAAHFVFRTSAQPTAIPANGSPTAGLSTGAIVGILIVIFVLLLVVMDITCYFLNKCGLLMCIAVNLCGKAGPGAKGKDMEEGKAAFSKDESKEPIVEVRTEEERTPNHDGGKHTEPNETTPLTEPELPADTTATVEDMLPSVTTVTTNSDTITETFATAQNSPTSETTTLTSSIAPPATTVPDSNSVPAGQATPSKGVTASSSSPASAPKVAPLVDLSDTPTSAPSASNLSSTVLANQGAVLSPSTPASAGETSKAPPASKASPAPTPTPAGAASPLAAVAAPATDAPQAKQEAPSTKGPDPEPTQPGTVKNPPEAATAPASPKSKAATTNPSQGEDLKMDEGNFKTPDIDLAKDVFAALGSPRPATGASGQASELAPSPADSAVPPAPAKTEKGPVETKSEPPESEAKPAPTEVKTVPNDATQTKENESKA
UniProt O14594, residues 23-1321: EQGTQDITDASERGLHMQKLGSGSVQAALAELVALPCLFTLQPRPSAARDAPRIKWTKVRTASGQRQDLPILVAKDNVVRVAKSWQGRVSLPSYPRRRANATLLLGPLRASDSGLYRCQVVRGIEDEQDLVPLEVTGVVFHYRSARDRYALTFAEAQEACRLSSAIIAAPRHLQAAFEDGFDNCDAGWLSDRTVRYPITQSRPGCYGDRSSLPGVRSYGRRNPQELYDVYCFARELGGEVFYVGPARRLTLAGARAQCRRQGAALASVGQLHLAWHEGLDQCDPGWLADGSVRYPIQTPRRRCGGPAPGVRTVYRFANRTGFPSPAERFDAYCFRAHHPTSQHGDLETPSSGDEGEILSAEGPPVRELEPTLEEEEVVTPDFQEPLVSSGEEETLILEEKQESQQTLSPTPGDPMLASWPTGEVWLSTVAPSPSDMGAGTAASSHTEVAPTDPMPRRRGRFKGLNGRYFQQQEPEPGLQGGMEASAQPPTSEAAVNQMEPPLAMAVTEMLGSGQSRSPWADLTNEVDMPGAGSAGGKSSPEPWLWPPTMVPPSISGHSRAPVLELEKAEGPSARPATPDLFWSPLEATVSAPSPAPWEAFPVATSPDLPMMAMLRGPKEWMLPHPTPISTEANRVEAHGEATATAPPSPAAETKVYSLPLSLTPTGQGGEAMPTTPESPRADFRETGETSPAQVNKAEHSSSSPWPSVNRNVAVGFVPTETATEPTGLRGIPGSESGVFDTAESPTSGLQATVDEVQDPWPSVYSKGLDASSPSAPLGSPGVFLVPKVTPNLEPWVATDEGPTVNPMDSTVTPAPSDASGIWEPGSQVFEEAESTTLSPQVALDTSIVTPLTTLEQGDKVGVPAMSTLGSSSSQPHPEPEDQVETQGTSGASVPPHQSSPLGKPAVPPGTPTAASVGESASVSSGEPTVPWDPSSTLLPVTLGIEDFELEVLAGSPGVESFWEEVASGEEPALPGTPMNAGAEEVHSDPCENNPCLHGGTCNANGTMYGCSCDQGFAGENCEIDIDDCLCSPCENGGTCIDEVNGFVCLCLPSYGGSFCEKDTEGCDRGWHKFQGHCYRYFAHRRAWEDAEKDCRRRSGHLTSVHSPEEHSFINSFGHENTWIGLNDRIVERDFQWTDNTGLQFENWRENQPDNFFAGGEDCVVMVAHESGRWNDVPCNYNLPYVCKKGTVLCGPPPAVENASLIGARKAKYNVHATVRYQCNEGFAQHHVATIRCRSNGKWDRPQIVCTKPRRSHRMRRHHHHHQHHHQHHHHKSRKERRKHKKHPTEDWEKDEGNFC
UniProt Q61361, residues 23-883: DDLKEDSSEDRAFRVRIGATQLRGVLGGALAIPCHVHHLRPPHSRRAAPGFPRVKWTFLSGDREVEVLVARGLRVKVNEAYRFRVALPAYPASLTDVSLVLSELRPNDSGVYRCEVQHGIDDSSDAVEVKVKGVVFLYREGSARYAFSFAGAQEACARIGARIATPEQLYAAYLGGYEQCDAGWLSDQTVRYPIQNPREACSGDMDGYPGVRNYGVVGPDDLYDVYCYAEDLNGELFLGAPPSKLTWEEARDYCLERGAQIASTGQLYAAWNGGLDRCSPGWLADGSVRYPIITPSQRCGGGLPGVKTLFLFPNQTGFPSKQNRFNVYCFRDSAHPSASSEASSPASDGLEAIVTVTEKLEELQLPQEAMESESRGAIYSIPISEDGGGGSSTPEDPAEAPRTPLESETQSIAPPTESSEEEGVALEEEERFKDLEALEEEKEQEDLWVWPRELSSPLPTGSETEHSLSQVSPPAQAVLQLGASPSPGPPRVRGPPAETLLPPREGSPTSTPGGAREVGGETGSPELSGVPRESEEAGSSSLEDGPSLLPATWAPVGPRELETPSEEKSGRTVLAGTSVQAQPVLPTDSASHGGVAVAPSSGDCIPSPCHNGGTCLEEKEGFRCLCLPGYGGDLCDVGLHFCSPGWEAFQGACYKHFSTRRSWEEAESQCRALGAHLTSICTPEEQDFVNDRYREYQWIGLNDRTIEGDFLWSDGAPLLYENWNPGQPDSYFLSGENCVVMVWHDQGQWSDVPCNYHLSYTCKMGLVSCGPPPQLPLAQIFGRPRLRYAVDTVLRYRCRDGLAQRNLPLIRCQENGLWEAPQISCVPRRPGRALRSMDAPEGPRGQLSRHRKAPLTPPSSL

The target of assay [2] is wild type NCAM-140 expressed in HEK293T cells (UniProt P13591). The description is as above.
The target of assay [3] is human NCAM Ig1-5/FN1-2 Fc fusion protein (full-length NCAM-EC) (human) (UniProt P13591). Description: pull-down; 1 ug of neurocan (human or mouse) incubated with 1 ug of Fc protein in TBS for 1 hr at 37 C; Fc proteins pulled down with Protein A/G Sepharose beads; immunoblot, densitometry; both purified.
The target of another assay is T2, recombinant ephrin-A5-Fc (UniProt P52803).
T2 sequence: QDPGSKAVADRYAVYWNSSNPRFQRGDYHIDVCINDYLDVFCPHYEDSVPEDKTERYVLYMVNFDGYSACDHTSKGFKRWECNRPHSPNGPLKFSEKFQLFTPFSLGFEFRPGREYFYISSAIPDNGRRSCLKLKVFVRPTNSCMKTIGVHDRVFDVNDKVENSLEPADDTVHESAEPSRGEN
Described as above.

Assay [4] addresses NCAM (neural cell adhesion molecule), endogenous in brain lysate (mouse (endogenous in brain)) (UniProt P13595). Description: co-IP; NCAM immunoprecipitated from mouse brain lysate (1 mg, RIPA buffer), Protein A/G agarose; immunoblot for neurocan, versican, aggrecan/brevican; P8 and P34 lysates compared.
Assay [5] deals with wild type NCAM-140 expressed in HEK293T cells (UniProt P13591). Description: co-IP; competitive binding assay: HEK293T cells co-transfected with NCAM-140 and EphA3, lysed, NCAM immunoprecipitated, bound EphA3 by immunoblot; cells untreated or treated with neurocan (20 nM, 30 min).

Results are given in words; binding and its absence hold for the method and conditions named. For part of these data: In cells and extracts the contact can be indirect. Some entries that bind do so weakly or less than the wild type. For part of these data: Where a sequence is shown, tags or fusion partners need not be part of it.

Take “recombinant neurocan (species not stated for the experiment) (from UniProt O14594 23-1321)”: the binding result in assay [1] was “no binding”; in assay [2] it was “binds”; in assay [3], “binds”; in the assay with recombinant ephrin-A5-Fc it was “no binding (tested: 1 ug of neurocan with 1 ug of Fc protein)”.

As for “versican, endogenous in brain lysate (from UniProt Q62059 24-3357)”, the binding result in assay [4] is listed as “no binding”.

As for “brevican, endogenous in brain lysate (from UniProt Q61361 23-883)”, the binding result in assay [4] is given as “no binding”.

On to “recombinant human neurocan (full-length protein) (from UniProt O14594 23-1321)”, for which the binding result in assay [2] and in assay [3] was “binds” throughout.

B1: EphA3 expressed in HEK293T cells (receptor, UniProt P29320 21-983)
chain: ELIPQPSNEVNLLDSKTIQGELGWISYPSHGWEEISGVDEHYTPIRTYQVCNVMDHSQNNWLRTNWVPRNSAQKIYVELKFTLRDCNSIPLVLGTCKETFNLYYMESDDDHGVKFREHQFTKIDTIAADESFTQMDLGDRILKLNTEIREVGPVNKKGFYLAFQDVGACVALVSVRVYFKKCPFTVKNLAMFPDTVPMDSQSLVEVRGSCVNNSKEEDPPRMYCSTEGEWLVPIGKCSCNAGYEERGFMCQACRPGFYKALDGNMKCAKCPPHSSTQEDGSMNCRCENNYFRADKDPPSMACTRPPSSPRNVISNINETSVILDWSWPLDTGGRKDVTFNIICKKCGWNIKQCEPCSPNVRFLPRQFGLTNTTVTVTDLLAHTNYTFEIDAVNGVSELSSPPRQFAAVSITTNQAAPSPVLTIKKDRTSRNSISLSWQEPEHPNGIILDYEVKYYEKQEQETSYTILRARGTNVTISSLKPDTIYVFQIRARTAAGYGTNSRKFEFETSPDSFSISGESSQVVMIAISAAVAIILLTVVIYVLIGRFCGYKSKHGADEKRLHFGNGHLKLPGLRTYVDPHTYEDPTQAVHEFAKELDATNISIDKVVGAGEFGEVCSGRLKLPSKKEISVAIKTLKVGYTEKQRRDFLGEASIMGQFDHPNIIRLEGVVTKSKPVMIVTEYMENGSLDSFLRKHDAQFTVIQLVGMLRGIASGMKYLSDMGYVHRDLAARNILINSNLVCKVSDFGLSRVLEDDPEAAYTTRGGKIPIRWTSPEAIAYRKFTSASDVWSYGIVLWEVMSYGERPYWEMSNQDVIKAVDEGYRLPPPMDCPAALYQLMLDCWQKDRNNRPKFEQIVSILDKLIRNPGSLKIITSAAARPSNLLLDQSNVDITTFRTTGDWLNGVWTAHCKEIFTGVEYSSCDTIAKISTDDMKKVGVTVVGPQKKIISSIKALETQSKNGPVPV
As for B1, the binding result in assay [5] is listed as “binds”.
